The supplement of paper PMC11876631
± gives the standard deviation of the averaged measurements. Laboratory Escherichia coli strains with one amino-acid change in an essential protein, pooled on minimal glucose agar with carbenicillin or gentamicin at twice the control MIC (plus kanamycin and chloramphenicol for the plasmids), 48 h. Fold change of barcode share against drug-free plates; higher = less susceptible. Active = above 20 in both replicates (the paper's putatively resistant). '<' = one read or none on drug, '>' = one read or none on a drug-free plate. Shares are relative, so most strains fall below 1 when a few take over. Listed are strains with at least 15 reads on both drug-free plates, and hits; most hits rest on fewer reference reads. Replicate rank correlation about 0.5. Edits are read from barcodes.

Target: Escherichia coli (laboratory strain)
Assay: barcode share on antibiotic plates over drug-free plates; higher = less susceptible
Description: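 A pool of E. coli strains, each edited to carry one amino-acid change in an essential protein, was grown for 48 h on minimal glucose agar with or without antibiotic; strain barcodes were sequenced; mean of two replicates.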

[1] = antibiotic: carbenicillin, 2× MIC (3.1 µg/mL)
[2] = antibiotic: gentamicin, 2× MIC (MIC 0.45 µg/mL)

B1: purE V13A (protein)
chain: MSSRNNPARVAIAMGSKSDWATMQFAAEIFEILNVPHHVEVVSAHRTPDKLFSFAESAEENGYQVIIAGAGGAAHLPGMIAAKTLVPVLGVPVQSAALSGVDSLYSIVQMPRGIPVGTLAIGKAGAANAALLAAQILATHDKELHQRLNDWRKAQTDEVLENPDPRGAA
fold change of barcode share [1]: 0.582 ± 0.063 | fold change of barcode share [2]: < 0.011

B2: purE V91W (protein)
chain: MSSRNNPARVAIVMGSKSDWATMQFAAEIFEILNVPHHVEVVSAHRTPDKLFSFAESAEENGYQVIIAGAGGAAHLPGMIAAKTLVPVLGWPVQSAALSGVDSLYSIVQMPRGIPVGTLAIGKAGAANAALLAAQILATHDKELHQRLNDWRKAQTDEVLENPDPRGAA
fold change of barcode share [1]: 0.953 ± 0.75 | fold change of barcode share [2]: < 0.00639

B3: purE I29A (protein)
chain: MSSRNNPARVAIVMGSKSDWATMQFAAEAFEILNVPHHVEVVSAHRTPDKLFSFAESAEENGYQVIIAGAGGAAHLPGMIAAKTLVPVLGVPVQSAALSGVDSLYSIVQMPRGIPVGTLAIGKAGAANAALLAAQILATHDKELHQRLNDWRKAQTDEVLENPDPRGAA
fold change of barcode share [1]: 0.622 ± 0.12

B4: purE V91A (protein)
chain: MSSRNNPARVAIVMGSKSDWATMQFAAEIFEILNVPHHVEVVSAHRTPDKLFSFAESAEENGYQVIIAGAGGAAHLPGMIAAKTLVPVLGAPVQSAALSGVDSLYSIVQMPRGIPVGTLAIGKAGAANAALLAAQILATHDKELHQRLNDWRKAQTDEVLENPDPRGAA
fold change of barcode share [1]: 0.362 ± 0.032 | fold change of barcode share [2]: < 0.00703

B5: purE V42A (protein)
chain: MSSRNNPARVAIVMGSKSDWATMQFAAEIFEILNVPHHVEVASAHRTPDKLFSFAESAEENGYQVIIAGAGGAAHLPGMIAAKTLVPVLGVPVQSAALSGVDSLYSIVQMPRGIPVGTLAIGKAGAANAALLAAQILATHDKELHQRLNDWRKAQTDEVLENPDPRGAA
fold change of barcode share [1]: 0.4583 ± 0.0026 | fold change of barcode share [2]: 0.00568 ± 0.0039

B6: purE V91D (protein)
chain: MSSRNNPARVAIVMGSKSDWATMQFAAEIFEILNVPHHVEVVSAHRTPDKLFSFAESAEENGYQVIIAGAGGAAHLPGMIAAKTLVPVLGDPVQSAALSGVDSLYSIVQMPRGIPVGTLAIGKAGAANAALLAAQILATHDKELHQRLNDWRKAQTDEVLENPDPRGAA
fold change of barcode share [1]: 0.462 ± 0.33 | fold change of barcode share [2]: 0.00907 ± 0.0072

B7: purE V91P (protein)
chain: MSSRNNPARVAIVMGSKSDWATMQFAAEIFEILNVPHHVEVVSAHRTPDKLFSFAESAEENGYQVIIAGAGGAAHLPGMIAAKTLVPVLGPPVQSAALSGVDSLYSIVQMPRGIPVGTLAIGKAGAANAALLAAQILATHDKELHQRLNDWRKAQTDEVLENPDPRGAA
fold change of barcode share [1]: 0.418 ± 0.094 | fold change of barcode share [2]: < 0.0052

B8: purE I29Q (protein)
chain: MSSRNNPARVAIVMGSKSDWATMQFAAEQFEILNVPHHVEVVSAHRTPDKLFSFAESAEENGYQVIIAGAGGAAHLPGMIAAKTLVPVLGVPVQSAALSGVDSLYSIVQMPRGIPVGTLAIGKAGAANAALLAAQILATHDKELHQRLNDWRKAQTDEVLENPDPRGAA
fold change of barcode share [1]: 0.233 ± 0.056 | fold change of barcode share [2]: < 0.00556

B9: purE V91Q (protein)
chain: MSSRNNPARVAIVMGSKSDWATMQFAAEIFEILNVPHHVEVVSAHRTPDKLFSFAESAEENGYQVIIAGAGGAAHLPGMIAAKTLVPVLGQPVQSAALSGVDSLYSIVQMPRGIPVGTLAIGKAGAANAALLAAQILATHDKELHQRLNDWRKAQTDEVLENPDPRGAA
fold change of barcode share [1]: 0.477 ± 0.17 | fold change of barcode share [2]: < 0.00739

B10: purD M200D (protein)
chain: MKVLVIGNGGREHALAWKAAQSPLVETVFVAPGNAGTALEPALQNVAIGVTDIPALLDFAQNEKIDLTIVGPEAPLVKGVVDTFRAAGLKIFGPTAGAAQLEGSKAFTKDFLARHKIPTAEYQNFTEVEPALAYLREKGAPIVIKADGLAAGKGVIVAMTLEEAEAAVHDMLAGNAFGDAGHRIVIEEFLDGEEASFIVDVDGEHVLPMATSQDHKRVGDKDTGPNTGGMGAYSPAPVVTDDVHQRTMERIIWPTVKGMAAEGNTYTGFLYAGLMIDKQGNPKVIEFNCRFGDPETQPIMLRMKSDLVELCLAACESKLDEKTSEWDERASLGVVMAAGGYPGDYRTGDVIHGLPLEEVAGGKVFHAGTKLADDEQVVTNGGRVLCVTALGHTVAEAQKRAYALMTDIHWDDCFCRKDIGWRAIEREQN
fold change of barcode share [1]: > 58 [active]

B11: purD M200P (protein)
chain: MKVLVIGNGGREHALAWKAAQSPLVETVFVAPGNAGTALEPALQNVAIGVTDIPALLDFAQNEKIDLTIVGPEAPLVKGVVDTFRAAGLKIFGPTAGAAQLEGSKAFTKDFLARHKIPTAEYQNFTEVEPALAYLREKGAPIVIKADGLAAGKGVIVAMTLEEAEAAVHDMLAGNAFGDAGHRIVIEEFLDGEEASFIVPVDGEHVLPMATSQDHKRVGDKDTGPNTGGMGAYSPAPVVTDDVHQRTMERIIWPTVKGMAAEGNTYTGFLYAGLMIDKQGNPKVIEFNCRFGDPETQPIMLRMKSDLVELCLAACESKLDEKTSEWDERASLGVVMAAGGYPGDYRTGDVIHGLPLEEVAGGKVFHAGTKLADDEQVVTNGGRVLCVTALGHTVAEAQKRAYALMTDIHWDDCFCRKDIGWRAIEREQN
fold change of barcode share [1]: > 45.2 [active]

B12: purD V256W (protein)
chain: MKVLVIGNGGREHALAWKAAQSPLVETVFVAPGNAGTALEPALQNVAIGVTDIPALLDFAQNEKIDLTIVGPEAPLVKGVVDTFRAAGLKIFGPTAGAAQLEGSKAFTKDFLARHKIPTAEYQNFTEVEPALAYLREKGAPIVIKADGLAAGKGVIVAMTLEEAEAAVHDMLAGNAFGDAGHRIVIEEFLDGEEASFIVMVDGEHVLPMATSQDHKRVGDKDTGPNTGGMGAYSPAPVVTDDVHQRTMERIIWPTWKGMAAEGNTYTGFLYAGLMIDKQGNPKVIEFNCRFGDPETQPIMLRMKSDLVELCLAACESKLDEKTSEWDERASLGVVMAAGGYPGDYRTGDVIHGLPLEEVAGGKVFHAGTKLADDEQVVTNGGRVLCVTALGHTVAEAQKRAYALMTDIHWDDCFCRKDIGWRAIEREQN
fold change of barcode share [1]: 30 [active] | fold change of barcode share [2]: 0.0376 ± 0.00058

B13: purD V256D (protein)
chain: MKVLVIGNGGREHALAWKAAQSPLVETVFVAPGNAGTALEPALQNVAIGVTDIPALLDFAQNEKIDLTIVGPEAPLVKGVVDTFRAAGLKIFGPTAGAAQLEGSKAFTKDFLARHKIPTAEYQNFTEVEPALAYLREKGAPIVIKADGLAAGKGVIVAMTLEEAEAAVHDMLAGNAFGDAGHRIVIEEFLDGEEASFIVMVDGEHVLPMATSQDHKRVGDKDTGPNTGGMGAYSPAPVVTDDVHQRTMERIIWPTDKGMAAEGNTYTGFLYAGLMIDKQGNPKVIEFNCRFGDPETQPIMLRMKSDLVELCLAACESKLDEKTSEWDERASLGVVMAAGGYPGDYRTGDVIHGLPLEEVAGGKVFHAGTKLADDEQVVTNGGRVLCVTALGHTVAEAQKRAYALMTDIHWDDCFCRKDIGWRAIEREQN
fold change of barcode share [1]: 12.4 ± 3 | fold change of barcode share [2]: < 0.0108

B14: purD V256Q (protein)
chain: MKVLVIGNGGREHALAWKAAQSPLVETVFVAPGNAGTALEPALQNVAIGVTDIPALLDFAQNEKIDLTIVGPEAPLVKGVVDTFRAAGLKIFGPTAGAAQLEGSKAFTKDFLARHKIPTAEYQNFTEVEPALAYLREKGAPIVIKADGLAAGKGVIVAMTLEEAEAAVHDMLAGNAFGDAGHRIVIEEFLDGEEASFIVMVDGEHVLPMATSQDHKRVGDKDTGPNTGGMGAYSPAPVVTDDVHQRTMERIIWPTQKGMAAEGNTYTGFLYAGLMIDKQGNPKVIEFNCRFGDPETQPIMLRMKSDLVELCLAACESKLDEKTSEWDERASLGVVMAAGGYPGDYRTGDVIHGLPLEEVAGGKVFHAGTKLADDEQVVTNGGRVLCVTALGHTVAEAQKRAYALMTDIHWDDCFCRKDIGWRAIEREQN
fold change of barcode share [1]: 1.03 ± 0.22 | fold change of barcode share [2]: 0.0117 ± 0.0023

B15: purD V256A (protein)
chain: MKVLVIGNGGREHALAWKAAQSPLVETVFVAPGNAGTALEPALQNVAIGVTDIPALLDFAQNEKIDLTIVGPEAPLVKGVVDTFRAAGLKIFGPTAGAAQLEGSKAFTKDFLARHKIPTAEYQNFTEVEPALAYLREKGAPIVIKADGLAAGKGVIVAMTLEEAEAAVHDMLAGNAFGDAGHRIVIEEFLDGEEASFIVMVDGEHVLPMATSQDHKRVGDKDTGPNTGGMGAYSPAPVVTDDVHQRTMERIIWPTAKGMAAEGNTYTGFLYAGLMIDKQGNPKVIEFNCRFGDPETQPIMLRMKSDLVELCLAACESKLDEKTSEWDERASLGVVMAAGGYPGDYRTGDVIHGLPLEEVAGGKVFHAGTKLADDEQVVTNGGRVLCVTALGHTVAEAQKRAYALMTDIHWDDCFCRKDIGWRAIEREQN
fold change of barcode share [1]: 0.714 ± 0.014 | fold change of barcode share [2]: 0.124 ± 0.17

B16: accA I115A (protein)
chain: MSLNFLDFEQPIAELEAKIDSLTAVSRQDEKLDINIDEEVHRLREKSVELTRKIFADLGAWQIAQLARHPQRPYTLDYVRLAFDEFDELAGDRAYADDKAIVGGIARLDGRPVMAIGHQKGRETKEKIRRNFGMPAPEGYRKALRLMQMAERFKMPIITFIDTPGAYPGVGAEERGQSEAIARNLREMSRLGVPVVCTVIGEGGSGGALAIGVGDKVNMLQYSTYSVISPEGCASILWKSADKAPLAAEAMGIIAPRLKELKLIDSIIPEPLGGAHRNPEAMAASLKAQLLADLADLDVLSTEDLKNRRYQRLMSYGYA
fold change of barcode share [1]: 0.354 ± 0.049 | fold change of barcode share [2]: 0.00998 ± 0.0084
